# Assay results reported in the supplement of paper PMC4166925.
# ± gives the standard deviation of the averaged measurements. The full ranking holds about 33,000 sequences; the median of “E-score (dimensionless, -0.5 to 0.5)” is about -0.046, and the highest 2% start at about 0.36. This is one part of the list.
# System: T1, SpTbr T-box DNA-binding domain (GST fusion)
# T1 sequence: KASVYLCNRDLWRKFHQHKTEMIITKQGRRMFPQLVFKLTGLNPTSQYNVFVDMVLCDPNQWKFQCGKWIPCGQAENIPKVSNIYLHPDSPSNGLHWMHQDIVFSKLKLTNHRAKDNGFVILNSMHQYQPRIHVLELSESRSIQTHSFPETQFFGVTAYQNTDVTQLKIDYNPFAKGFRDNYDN
# Test: PBM E-score of 8-mer (E-score (dimensionless, -0.5 to 0.5)); Tbr is Tbrain of the sea star Patiria miniata (Pm) or the sea urchin Strongylocentrotus purpuratus (Sp); higher = stronger binding preference; most listed sequences are background and not binding sites
# Conditions: the construct has about 5 more residues each side
# Protocol: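 Universal protein-binding microarray (Agilent AMADID 016060, 60-bp probes with a 35-bp variable region) incubated with 200 nM GST-fused Strongylocentrotus purpuratus Tbr T-box DNA-binding domain (residues 362-554) in PBS pH 7.5. Scored for every ungapped 8-mer (given with its reverse complement) as E-score (range -0.5 to 0.5; >0.45 counts as bound) and Z-score of median probe intensity. Two replicate arrays (datasets 1 and 2).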
# 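Further: protein at 200 nM in PBS on universal double-stranded arrays.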
row,Sequence,PBM E-score of 8-mer
1,AACTGCAT,-0.119 ± 0.03
2,ACGAATCA,-0.0264 ± 0.11
3,CGGCCATC,-0.125 ± 0.027
4,AATATGCT,0.0234 ± 0.019
5,CAATCCTC,0.0167 ± 0.016
6,AGTGGGGG,-0.0909 ± 0.05
7,AGAAGTTG,0.0931 ± 0.029
8,TAATGTGA,0.218 ± 0.024
9,ATGGAGCC,-0.297 ± 0.012
10,CAAGGCAC,-0.06725 ± 1.4e-05
11,GTAGTTCA,-0.1219 ± 0.00013
12,CCCCGGGC,-0.192 ± 0.11
13,CTGTGGAC,0.00823 ± 0.017
14,TATAAGCA,-0.138 ± 0.013
15,GTACCTGA,-0.2372 ± 0.0014
16,AAGCACTG,-0.0411 ± 0.081
17,AACTCCTA,0.01 ± 0.014
18,AGATATTG,-0.117 ± 0.048
19,GAGGACTC,-0.224 ± 0.053
20,CCGTTTGC,0.0538 ± 0.01
21,ACTCAACA,0.195 ± 0.01
22,GGACCGCA,-0.132 ± 0.051
23,CGTGAGGA,0.178 ± 0.011
24,AGACGCAG,-0.0766 ± 0.028
25,CTTACCGC,0.046 ± 0.0053

row,Sequence,PBM E-score of 8-mer
1,CTACCAAC,-0.0445 ± 0.065
2,AGTTACCC,-0.125 ± 0.045
3,GCCAATGA,0.104 ± 0.082
4,GACGCTGC,-0.0944 ± 0.087
5,ACTAAAGA,-0.174 ± 0.049
6,CAGTTTTA,-0.0509 ± 0.036
7,ACCCTAGA,-0.114 ± 0.0022
8,CAGTCCAC,0.192 ± 0.026
9,CCAGGTAG,-0.0519 ± 0.069
10,ATCAGGAT,-0.119 ± 0.0046
11,CTTCAAAG,-0.138 ± 0.029
12,ATGTACAG,-0.039 ± 0.071
13,CAATTCGA,-0.115 ± 0.034
14,GCTTATCC,0.125 ± 0.027
15,CGACGTAG,-0.137 ± 0.045
16,ATGTCCAG,-0.221 ± 0.041
17,AGAGATGC,-0.0945 ± 0.03
18,ATCCGGAT,-0.134 ± 0.029
19,ATCCGGTA,-0.0877 ± 0.073
20,AGAATTTC,-0.0384 ± 0.14
21,ACCGTACG,0.0643 ± 0.0085
22,GGATCGAC,-0.0556 ± 0.0057
23,ACAACCCT,0.0805 ± 0.0049
24,ATTTGAAA,-0.227 ± 0.071
25,ACATCAAA,0.0819 ± 0.034

row,Sequence,PBM E-score of 8-mer
1,CCAAAGGA,-0.262 ± 0.032
2,AGAAGTCA,-0.00144 ± 0.039
3,ATACTGTC,0.0797 ± 0.033
4,AGGCGCGC,0.185 ± 0.039
5,CTCCTGCA,-0.0864 ± 0.04
6,AGAGAACG,0.14 ± 0.025
7,ATGTTTAA,-0.0732 ± 0.0089
8,CGACAGAA,0.0111 ± 0.034
9,ACAAAGGG,-0.137 ± 0.048
10,CGGCTACG,-0.0244 ± 0.031
11,GAGTCTAA,-0.0932 ± 0.04
12,CATCCGAG,-0.13 ± 0.052
13,CGTGTTAA,0.409 ± 0.0099
14,GGCACACA,0.224 ± 0.0077
15,GCTTTCAA,-0.139 ± 0.024
16,CGTGCCAC,0.254 ± 0.041
17,ATTGCTAG,0.0788 ± 0.013
18,ACAGGCTC,-0.016 ± 0.026
19,GGAGCTCA,-0.0825 ± 0.04
20,CGGTTCAA,-0.32702 ± 3.5e-05
21,GGGGTAAC,-0.0298 ± 0.022
22,AGCGTGGA,0.102 ± 0.045
23,GCCAGGGA,-0.192 ± 0.057
24,ATCACAAA,0.106 ± 0.014
25,CACAGCCG,0.0316 ± 0.067

row,Sequence,PBM E-score of 8-mer
1,AGTCCTTA,-0.0939 ± 0.02
2,CCGTTAAA,0.176 ± 0.08
3,CTCAGAAC,0.02 ± 0.019
4,AACATCGA,0.0413 ± 0.043
5,CAAATCGA,-0.0494 ± 0.049
6,ATACGTTC,-0.105 ± 0.0093
7,GGTGCTTA,0.0813 ± 0.098
8,ACTCTATC,-0.103 ± 0.042
9,GACGCCGC,0.0108 ± 0.043
10,ACCCGGCA,0.0763 ± 0.041
11,CCGCAATA,-0.108 ± 0.0022
12,CAACAAAG,0.0729 ± 0.02
13,ACAGTACG,-0.186 ± 0.066
14,GATACGAA,-0.0398 ± 0.079
15,ATGCGCAT,-0.0516 ± 0.17
16,CGATGAGC,-0.0456 ± 0.11
17,AATAGTAC,-0.139 ± 0.066
18,ATCGGGCG,-0.00975 ± 0.05
19,CGTTTGAA,-0.067 ± 0.0095
20,CGTACGAG,-0.198 ± 0.1
21,GCGTGAAC,0.456 ± 0.0075
22,CTATGAAG,-0.226 ± 0.0027
23,AAGGTGGC,0.372 ± 0.0085
24,GCTCTGTA,-0.199 ± 0.025
25,AGTAAAAA,-0.224 ± 0.024

row,Sequence,PBM E-score of 8-mer
1,AGTAGGGA,-0.297 ± 0.088
2,ATCTCCTC,-0.0194 ± 0.039
3,CTACGCTC,-0.232 ± 0.0073
4,AATGAACC,-0.075 ± 0.066
5,ACCACCGT,0.0835 ± 0.0064
6,AATATTCC,-0.1264 ± 0.00081
7,ACGGGGGG,-0.0337 ± 0.022
8,AGCCTCAC,0.178 ± 0.015
9,CCGAATGA,-0.173 ± 0.053
10,CGGCGCAC,0.0249 ± 0.048
11,ATTTTGCG,0.101 ± 0.019
12,GCGCCCCC,-0.0866 ± 0.022
13,CCGTCGAG,-0.104 ± 0.023
14,AAATAATT,-0.0728 ± 0.066
15,AAGGGTTA,-0.0482 ± 0.0044
16,ACTTACCG,-0.1401 ± 0.00043
17,CACCTGTA,0.331 ± 0.036
18,GGAGGCAC,-0.152 ± 0.12
19,ATACAAAG,-0.19 ± 0.03
20,ACACAACG,0.238 ± 0.0099
21,ACTAGACC,-0.275 ± 0.038
22,AACTCGCC,0.17 ± 0.0045
23,ATCGGTGC,-0.0391 ± 0.032
24,AATCATTC,-0.0441 ± 0.037
25,GCACACGA,-0.113 ± 0.11

row,Sequence,PBM E-score of 8-mer
1,CGAGGGCA,-0.0321 ± 0.028
2,ATCGCTAA,0.117 ± 0.016
3,GAATAGAA,-0.0134 ± 0.012
4,AGACCGAA,-0.354 ± 0.023
5,CTGCTAAG,0.0672 ± 0.03
6,ACGCATGG,-0.144 ± 0.018
7,GATATCGC,0.266 ± 0.019
8,ACGTACGG,-0.106 ± 0.045
9,GTGGGTCA,-0.0719 ± 0.046
10,AAGGCAGT,-0.0222 ± 0.0029
11,AAGGCATA,-0.131 ± 0.084
12,AAGCCGTA,-0.206 ± 0.062
13,ATAAGCCC,-0.176 ± 0.035
14,GGATACGA,0.0477 ± 0.082
15,ATGATAAA,0.105 ± 0.11
16,CCCCAAAA,-0.112 ± 0.042
17,ATATACGG,-0.0598 ± 0.014
18,CATCTAGG,0.00735 ± 0.031
19,CTTCGTAA,0.00265 ± 0.034
20,CCTAATAA,-0.102 ± 0.037
21,CCTCAGGA,-0.158 ± 0.025
22,AAAACCCA,-0.103 ± 0.011
23,GCTCGCAA,0.224 ± 0.021
24,ACTGGGTG,0.0609 ± 0.0055
25,ACTCTTTC,0.0551 ± 0.015

row,Sequence,PBM E-score of 8-mer
1,ATCTAGAA,-0.151 ± 0.049
2,CCTTCTGA,-0.142 ± 0.036
3,ACTCGATG,-0.0556 ± 0.081
4,CAGGCCTG,-0.346 ± 0.071
5,CGCAGGGA,-0.15 ± 0.0056
6,AGTGTAGA,0.0751 ± 0.037
7,TACCCCTA,-0.231 ± 0.028
8,ATATCAAA,-0.163 ± 0.015
9,TAGATCTA,-0.0421 ± 0.046
10,AGCCGTTC,0.0442 ± 0.006
11,CGCAAGCG,-0.00658 ± 0.068
12,GGTCGGAC,-0.274 ± 0.021
13,CTGCATTC,-0.122 ± 0.0089
14,CAACACAC,0.207 ± 0.031
15,AAGTCGTC,0.155 ± 0.0024
16,GACAGAGC,-0.298 ± 0.022
17,AACTGGGA,-0.154 ± 0.013
18,GCTACCCA,-0.172 ± 0.08
19,AAAAAGGG,-0.284 ± 0.051
20,AGGGAAAA,-0.354 ± 0.005
21,AGAGGGTC,-0.177 ± 0.0093
22,GCTGGCCA,-0.16 ± 0.0033
